In PubChem BioAssay AID1347073 (National Center for Advancing Translational Sciences (NCATS), 2019):
Among all 45,000 compounds or so, about 200 (0.44%) were called active. Another 7% or so got no clear call; they are omitted. Calls follow the shape of the dose curve; as a rule, active = well fitted activation curve with a large enough effect; inconclusive = small, poorly fitted or top-dose-only effect; inactive = no such curve, though single readings can be large or run the other way. This is one part of the list.

Test: qHTS of TDP-43 Inhibitors: NCGC Sytravon Library Screen; also: 0% is about no effect; nearly all actives have a fitted effect of over 55% in size
Conditions: yeast TDP-43 toxicity rescue, BacTiter-Glo growth, 24 h; series mostly up to 46.1 µM; growth rescue (activation): at the top concentration
Procedure, shortened: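 TDP-43-expressing yeast, pregrown in raffinose, seeded at OD600 0.02 in galactose medium with compound for 24 hr at 30 deg C. Growth read by BacTiter-Glo luminescence, so rescue of toxicity appears as activation.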

Row | SMILES | growth rescue (activation)
1 | O=C(CSc1nc(O)cc(=O)[nH]1)N1CCCc2ccccc21 | inactive: -11.3%
2 | O=S(=O)(Nc1nc(-c2ccccc2)cs1)c1cccc(C(F)(F)F)c1 | inactive: -1.32%
3 | COCCCNC(=O)c1ccc([N+](=O)[O-])c(Cl)c1 | inactive: -14.5%
4 | CCOc1ccc(NCc2cccn2-c2nnc(N3CCC(C(=O)NCc4ccccc4Cl)CC3)s2)cc1 | inactive: 8.42%
5 | O=C(Nc1ccccc1Cl)c1ccc(S(=O)(=O)NCC2CCCO2)cc1 (configuration not stated) | inactive: 7.89%
6 | CCCCOc1ccc(C(=O)Nn2c(-c3cccs3)nc3ccccc3c2=O)cc1 | inactive: 13.9%
7 | O=C(NC(=S)Nc1ccc(NC(=O)c2cccs2)cc1)c1cc2ccccc2o1 | inactive: -24.5%
8 | O=C(NC1CCSc2ccccc21)c1ccc(C(F)(F)F)cc1 (configuration not stated) | inactive: -7.86%
9 | Cc1cc(C)nc(N/N=C/c2cc3c(cc2[N+](=O)[O-])OCO3)n1 | inactive: 8.34%
10 | Cn1c(N)c(C(=O)c2ccc(F)cc2F)c(=O)n(C)c1=O | inactive: 4.17%
11 | Cc1ccc(SCCC(=O)NNC(=O)c2ccccc2F)cc1 | inactive: 28.4%
12 | Cc1cc(NS(=O)(=O)c2ccc(NC(=O)c3ccc(Cl)cc3[N+](=O)[O-])cc2)no1 | inactive: 8.21%
13 | COc1cccc(NC(=O)COC(=O)C2CCN(S(=O)(=O)c3cccs3)CC2)c1 | inactive: 1.95%
14 | CCCc1nnc(NC(=O)CCC(=O)N2CCN(c3nc(C)cc(C)n3)CC2)s1 | inactive: -3.3%
15 | Cn1c(SCC(=O)NNC(=O)c2ccc(Br)cc2)nnc1-c1cccnc1 | inactive: -0.903%
16 | O=C(NNC1CC(=O)N(c2ccccc2)C1=O)c1ccccc1Cl (configuration not stated) | inactive: -1.73%
17 | COc1ccccc1N=C1SCC(=O)N1c1ccccc1OC | inactive: 7.52%
18 | C/C(=N\O)c1oc2ccc3c(C)cc(=O)oc3c2c1C | inactive: 5.12%
19 | Cc1cccc(-n2c(Cn3nc(C)c([N+](=O)[O-])c3C)n[nH]c2=S)c1 | inactive: 21.2%
20 | NC(=O)c1ccc(NC(=O)COC(=O)c2cc3ccccc3cc2O)cc1 | inactive: -1.32%
21 | Cc1ccc(S(=O)(=O)N2CCCCC2)cc1NC(=O)CSc1ncn[nH]1 | inactive: 5.22%
22 | CC(=O)Nc1ccc(S(=O)(=O)NC2CCCCCC2)cc1 | inactive: -0.738%

Row | SMILES | growth rescue (activation)
23 | O=C(COC(=O)COc1cccc(Br)c1)Nc1c(Cl)cccc1Cl | inactive: -18.1%
24 | CCN(C(=O)CSc1nnc(COc2cccc(C)c2)o1)c1nc(C)cs1 | inactive: 0.167%
25 | O=C(NCCCn1ccnc1)c1cc(S(=O)(=O)N2CCOCC2)ccc1F | inactive: 7.39%
26 | CCn1ncc(CN2CCN(Cc3cccc(OC)c3)C(CCO)C2)c1C (configuration not stated) | inactive: -13.5%
27 | O=C(CSc1nnc(-c2ccncc2)o1)NCc1ccccc1 | inactive: 3.57%
28 | O=[n+]1cc(-c2ccccc2)n([O-])c2c1CCCCC2 | inactive: 13.5%
29 | O=C(/C=C/c1cc([N+](=O)[O-])ccc1OC(F)F)Nc1cccc2ccccc12 | inactive: 23%
30 | O=C(Nc1nc(-c2ccccn2)cs1)c1ccco1 | inactive: -20%
31 | Cn1c(SCC(=O)NNC(=O)c2ccccc2)nnc1C1CC1 | inactive: 2.14%
32 | COc1ccc(/C=N/NC(=O)Cn2c(Cc3ccc(OC)c(OC)c3)nc3ccccc32)cc1 | inactive: 10.6%
33 | Cn1c(N)c(C(=O)COC(=O)C2CC(=O)N(Cc3ccccc3)C2)c(=O)n(C)c1=O (configuration not stated) | inactive: 0.577%
34 | COc1ccccc1NC(=O)COC(=O)CCC1CCCC1 | inactive: 15%
35 | O=C1Nc2ccccc2O/C1=C\c1ccccc1 | inactive: 11.9%
36 | Cc1cccc(C)c1NC(=O)CN1CCCC1 | inactive: 4.11%
37 | CC1Sc2ccccc2N(Cc2ccc(OC(F)(F)F)cc2)C1=O (configuration not stated) | inactive: 14.4%
38 | CCCc1nc2c(c(=O)c3ccccc3n2C)c(=O)n1C1CCCCCC1 | inactive: 19.2%
39 | COc1ccccc1CNCC(=O)Nc1cc(S(=O)(=O)N2CCCCC2)ccc1C | inactive: 28.7%
40 | O=C(Cn1c2c(c(-c3ccccc3Cl)cc1=O)CCC2)NCC1CCCO1 (configuration not stated) | inactive: 33.8%
41 | O=C(Nc1cc(S(=O)(=O)Nc2ccc(Cl)cc2)ccc1N1CCCCC1)c1ccc(F)cc1 | inactive: -1.38%
42 | COc1ccc(/C=C(\C#N)C(=O)NCc2ccccc2)cc1O | inactive: 14.4%
43 | O=C(Nc1ccc(C(=O)Oc2ccccc2)c(O)c1)c1ccccc1 | inactive: 9.19%
44 | CCOC(=O)N1CCN(C(=O)C2CCN(Cc3cccc(OCc4ccccc4)c3)CC2)CC1 | inactive: 9.93%

Row | SMILES | growth rescue (activation)
45 | CC(NC(=S)Nc1ccccc1Cl)C(c1cccs1)N1CCCC1 (configuration not stated) | inactive: 7.95%
46 | Cc1cc(OCC(O)CN2C(C)CCCC2C)ccc1C(C)C (configuration not stated) | inactive: 12.5%
47 | Cc1ccc(S(=O)(=O)Nc2ccc(C(=O)N3CCCC3)cc2)c(C)c1NS(C)(=O)=O | inactive: 11.9%
48 | COc1cccc(/C=C2\SC(=S)N(N3CCOCC3)C2=O)c1OC | inactive: 21.4%
49 | CC1=C(C#N)C(c2ccoc2)C(C(=O)OCc2ccccc2)=C(N)S1 (configuration not stated) | inactive: 5.92%
50 | O=C(Nc1cnn(Cc2ccccc2)c1)c1nc2ncccn2n1 | inactive: 4.76%
51 | S=C(NC1CCCCC1)N1CCN(Cc2ccccc2)CC1 | inactive: 17.3%
52 | Cc1ccc2c(c1)N(CC(=O)N1CCCCCC1)C(=O)C(C)O2 (configuration not stated) | inactive: 1.36%
53 | OC[C@@H]1CN(Cc2ccco2)C[C@H](n2cnc3c(N4CCN(c5ccccc5)CC4)ncnc32)O1 | inactive: 1.15%
54 | COc1cc(C(=O)N2CCC(C(=O)Nc3cccc(C(C)=O)c3)CC2)cc(OC)c1OC | inactive: 2.27%
55 | COc1ccc2c(c1)C(c1cccs1)=NNC(c1cccnc1)=N2 | inactive: 11.2%
56 | CC(=O)Nc1ccc(NC(=S)NC(=O)c2ccc([N+](=O)[O-])c(C)c2)cc1 | inactive: 12.6%
57 | CCOc1ccc(NC(=O)/C(C#N)=C\c2ccc(N3CCCC3)c(C)c2)cc1 | inactive: 7.09%
58 | Cc1c(Cl)cccc1NC(=S)N(CCCN1CCOCC1)Cc1ccco1 | inactive: -1.66%
59 | COc1ccc(NC(=O)COc2ccccc2C(=O)NCC(c2ccccc2)N(C)C)cc1Cl (configuration not stated) | inactive: -12.1%
60 | CC(=O)Nc1cc[n+](C(C)C(=O)c2ccc(Cl)cc2)cc1 (configuration not stated) | inactive: 10.7%
61 | O=C(CNC(=O)c1ccccc1)N/N=C/c1cn[nH]c1-c1ccccc1 | inactive: 14.4%
62 | N#CC1=C(N)Oc2cc(O)ccc2C1c1cccnc1 (configuration not stated) | inactive: 7.43%
63 | COc1ccc(C(=O)Nc2cccc(NC(C)=O)c2)cc1OC | inactive: 7.77%
64 | Cc1ccccc1C1c2[nH]c3ccccc3c2CCN1C(=O)c1ccc(=O)n(C)n1 (configuration not stated) | inactive: -3.44%
65 | COCCNC(=O)C(=O)N/N=C(\C)CC(=O)Nc1ccc2c(c1)OCO2 | inactive: -4.24%
66 | Cc1cc(NS(=O)(=O)c2ccc(NC(=O)C(C)Oc3ccc(C(C)C)cc3)cc2)no1 (configuration not stated) | inactive: 33.4%

Row | SMILES | growth rescue (activation)
67 | CC(C)OC(=O)NCCOC(=O)Nc1ccccc1Cl | inactive: 29.5%
68 | COc1cccc(/C=C(\CC(=O)O)c2nc3ccccc3s2)c1 | inactive: -27.6%
69 | Cc1cc(Br)ccc1SCC(=O)OCC(=O)NC(C)c1ccccc1 (configuration not stated) | inactive: 10.4%
70 | COc1ccc(/C=C(\NC(=O)c2ccc(C)cc2)C(=O)NCCN2CCOCC2)cc1 | inactive: 12.3%
71 | Cc1cccc(C(C(N)=O)c2ncc(C(F)(F)F)cc2Cl)c1 (configuration not stated) | inactive: -6.71%
72 | O=C(NNC(=O)C1CCN(c2ncccn2)CC1)c1ccccc1 | inactive: 3.47%
73 | CCN(CC)CCNC(=O)c1c(O)c2cc(OC)c(OC)cc2[nH]c1=O | inactive: 8.88%
74 | O=S(=O)(c1ccc(Cl)cc1)c1nc(-c2ccco2)oc1N1CCOCC1 | inactive: 7.32%
75 | Cc1cc(NC(=O)CSc2nnc(-c3ccncc3)n2-c2ccccc2)no1 | inactive: -11%
76 | COc1ccc(/C=C2/SC(=S)N(CCCC(=O)Nc3cccc(O)c3)C2=O)cc1 | inactive: -9.51%
77 | CCCc1c(O)nc(SCC(=O)NCc2ccco2)[nH]c1=O | inactive: -1.48%
78 | CCOC(=O)c1c(NC(=O)C(C)N2CCN(S(=O)(=O)c3cccs3)CC2)sc2c1CCC(C)C2 (configuration not stated) | inactive: 6.37%
79 | CCCCSc1nnc(-c2ccc(NC(C)=O)cc2)n1C | inactive: -15.2%
80 | COc1ccc(C(=O)CSc2nc(C)cc(C)n2)cc1[N+](=O)[O-] | inactive: 21%
81 | COc1ccc(S(=O)(=O)NC(=O)C2(C)CCN2C(=O)CCc2ccc(Cl)cc2Cl)cc1 (configuration not stated) | inactive: 17.8%
82 | O=C(NCCc1ccccn1)c1ccc(OC(F)F)cc1 | inactive: -3.19%
83 | CCCNC(=O)NC(=O)CSc1ccc(C)cc1C | inactive: 7.75%
84 | CCOc1ccc(NC(=S)NC2CC3CCC(C2)N3Cc2ccco2)cc1 (configuration not stated) | inactive: -4.74%
85 | CCN(CCCNC(=O)C1CCN(S(=O)(=O)N2CCOCC2)CC1)c1cccc(C)c1 | inactive: 11.2%
86 | CC(C)(C)NC(=O)CN1C(=O)/C(=C/c2ccccc2)SC1=S | inactive: -4.98%
87 | COc1ccc(-c2nn(-c3ccccc3)cc2C(=O)N2CCN(C(=O)c3ccco3)CC2)cc1 | inactive: 9.39%
88 | CCC(CC)C(=O)N(C)c1c(C)nc2c(OCc3cccc(Cl)c3)cccn12 | inactive: 14.6%

Row | SMILES | growth rescue (activation)
89 | O=C1c2ccccc2NC(c2ccco2)N1NS(=O)(=O)c1ccccc1 (configuration not stated) | inactive: -8.52%
90 | COc1cccc(/C=N/n2nnnc2N)c1O | inactive: -3.64%
91 | CCN(CC)S(=O)(=O)c1cc(OC)c(C)cc1C | inactive: 2.38%
92 | C[C@H](NS(=O)(=O)c1ccccc1F)C(=O)OCC(=O)Nc1ccc2c(c1)OCCO2 | inactive: 14.8%
93 | Cc1cccc(C)c1NC(=O)CSCC(=O)O | inactive: -40%
94 | CCC(=O)c1ccc(Oc2ccc(C(=O)c3ccc(C)cc3)cc2[N+](=O)[O-])cc1 | inactive: 27.3%
95 | CN(Cc1ccccc1N1CCCC1)C(=O)c1cc2ccccc2o1 | inactive: 6.7%
96 | Cc1cc(C)n(C(=O)CNC(=O)/C=C/c2ccccc2)n1 | inactive: 3.63%
97 | COc1ccc(C(=O)NNC(=O)c2ccccc2[N+](=O)[O-])cc1 | inactive: 13.6%
98 | CC(=O)NC(c1ccc(F)c(F)c1)c1nc(-c2ccccc2)cs1 (configuration not stated) | inactive: 28.6%
99 | COc1cc(C(=O)OCc2cc(=O)n3ccsc3n2)ccc1OC(C)C | inactive: 16.8%
100 | CCOc1ccc2[nH]c3c(N4CCN(C(=O)c5ccco5)CC4)ncnc3c2c1 | inactive: 9.68%
101 | COc1ccc([N+](=O)[O-])cc1N(CC(=O)NCCSc1ccc(C)cc1)S(C)(=O)=O | inactive: -0.529%
102 | CC(=O)c1ccc(N2CCN(C(=O)/C=C/c3ccc(S(=O)(=O)NCc4ccco4)cc3)CC2)cc1 | inactive: 14.3%
103 | Cc1ccc(S(=O)(=O)N2CCN(C)CC2)cc1C(=O)NC1CCCCC1 | inactive: -5.78%
104 | CC1=NN(C(N)=S)C(=O)C1N=Nc1ccc([N+](=O)[O-])cc1 (configuration not stated) | inactive: -3.86%
105 | Cc1ccc(-c2nnc(SCC(=O)NNC(=O)COc3ccccc3C)n2C)cc1 | inactive: -9.46%
106 | COc1ccc(C(=O)NC(=S)NCc2cccnc2)cc1OC | inactive: 11.5%
107 | COc1ccc(S(=O)(=O)N2CC(C)N(C(=O)N3CCOCC3)C2)cc1 (configuration not stated) | inactive: 6.85%
